The source of these data is PubChem BioAssay AID1963576 (National Center for Advancing Translational Sciences (NCATS), 2024).

SMILES strings stand for the structures. Out of some 46,000 compounds screened, about 60 (0.1%) were called active. Roughly 3% stayed inconclusive and do not appear here. Calls come from the whole dose curve; as a rule, active = well fitted inhibition curve with a large enough effect; inconclusive = small, poorly fitted or top-dose-only effect; inactive = no such curve, though single readings can be large or run the other way. This is one part of the list.

This assay in a line: Primary qHTS assay for Inhibitors of ovarian cancer metastasis using an organotypic tumor microenvironment (TME) model.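 For activity change, negative = inhibition: plate controls were DMSO wells for no effect and tomatine positive control wells for full effect.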 Note: nearly all actives have a fitted effect of over 65% in size. Particulars: SKOV3ip1-GFP adhesion/invasion on 3D omental model, fluorescence; series mostly up to 45.8 µM; activity change, negative = inhibition: at the top concentration. The essentials: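 Primary human omental fibroblast/mesothelial 3D culture pre-formed 48 h. SKOV3ip1-GFP cells added with compounds (0.36-46 umol/L), incubated 2 h RT/16 h 37 C, fixed; GFP cells quantified at 488/509 nm.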
Background: In qHTS, concentration-response curves come from the screen itself.
As for `COc1ccc2c(c1)c(=O)c(S(=O)(=O)c1ccc(C)cc1)cn2Cc1ccccc1C`, the “activity change, negative = inhibition” value is inactive: -5.01%.
Still for that read-out and setting: to `O=C(CCS(=O)(=O)c1cc(Br)cc2c1N(C(=O)C1CC1)CC2)NCc1ccccc1Cl` belongs inactive: 10.2%; to `Cc1c(NC(=O)c2cccc3c(Cl)cccc23)cccc1-c1nc2ccccc2o1`, inactive: 0.634%.
The same measure, in the same setting: the figure for `COc1ccc(Br)cc1C(=O)Nc1ccc(-c2nc3cc(Cl)ccc3o2)cc1` is inactive: -6.02%; for `CC(=O)c1ccc(NC(=O)Cn2cc(S(=O)(=O)Cc3ccccc3Cl)c3ccccc32)cc1` it is inactive: 8%.
For the compound `CC1=C(C(=O)NCc2ccccc2C)C2(CCCCC2)OC1=O`, the compound was called inactive.
Same read-out and setting: to `Cc1c(NC(=O)C(C)(C)Oc2ccc(Cl)cc2)cccc1-c1nc2ncccc2o1` belongs “inactive”.
Take `Cc1c(Cl)cccc1NC(=O)Nc1nnc(N(C)Cc2ccccc2)s1`: the “activity change, negative = inhibition” value is inactive: -0.0587%.
Consider `COCCCNC(=O)CSc1nc2cc3c(cc2c(=O)n1CCCC(=O)NCc1ccc(OC)cc1)OCO3`, for which the “activity change, negative = inhibition” value was inactive: -1.59%.
On the same count and under the same terms, to `Cn1c(=O)c2c(nc(Oc3ccccc3)n2Cc2c(Cl)cccc2Cl)n(C)c1=O` belongs inactive: -10.2%.
On the same count and under the same terms, the figure for `COc1ccc(N(CC(=O)Nc2cc(C)ccc2C)S(=O)(=O)c2ccc(OC)c(OC)c2)cc1` is inactive: 5.03%; for `O=C(COc1ccccc1[N+](=O)[O-])Nc1cccc(-c2nc3ccccc3s2)c1` it is inactive: 0.107%.
The same measure, in the same setting: to `CCc1ccc(C2c3c(oc4ccc(F)cc4c3=O)C(=O)N2c2nc(C)c(C(=O)OC)s2)cc1` (stereo not drawn) belongs inactive: 0.276%.
`O=C(Nc1ccc(F)cc1F)c1ccc2c(O)c(S(=O)(=O)c3ccc(Cl)cc3)c(=O)[nH]c2c1`: the “activity change, negative = inhibition” value was inactive: 0.919%.
Still for that read-out and setting: to `COc1cc(NC(=O)CSc2nc3nc(C)c(Cc4ccc(C)cc4)c(C)n3n2)cc(OC)c1OC` belongs inactive: 6.2%.
As for `CCOc1ccc(NC(=O)CN2C(=O)COc3ccc(S(=O)(=O)NC4CCCC4)cc32)cc1`, the “activity change, negative = inhibition” value is inactive: -5.82%.
Still for that read-out and setting: the figure for `O=C(COCc1cc(-c2ccc3c(c2)OCO3)on1)NCc1ccccc1Cl` is inactive: -5.63%; for `O=C(CSc1cn(CC(=O)N2CCOCC2)c2ccccc12)Nc1ccccc1` it is inactive: 0.574%.
The same measure, in the same setting: the figure for `O=C(Nc1c(C(=O)O)oc2ccccc12)c1ccc(C(F)(F)F)cc1` is inactive: 16%; for `Cc1ccccc1Cc1c(C)nc2nc(SCC(=O)NCCc3ccc(Cl)cc3)nn2c1C` it is inactive: 12.9%.
For the compound `CC1=C(c2ccc(C)c(C)c2)S(=O)(=O)N(Cc2ccc(C(=O)NC(C)c3ccccc3)cc2)C1=O` (stereo not drawn), the compound was classed as inactive.
`O=C(COc1ccccc1)Nc1ccccc1OCc1cc(=O)n2ccccc2n1`: the “activity change, negative = inhibition” value was inactive: 1.97%.
Consider `CCOc1ccc(C(=O)Nc2ccc(S(=O)(=O)Nc3nc(C)cc(C)n3)cc2)cc1OC`, for which the “activity change, negative = inhibition” value is inactive: 2.9%.
As to `NC(=O)c1ccc2[nH]ccc2c1`, the “activity change, negative = inhibition” value was inactive: -18.1%.
On the same count and under the same terms, the figure for `COc1ccccc1OCC(=O)NCc1nc(-c2ccc(Cl)cc2)no1` is inactive: -9.54%.
In the case of `CCOc1ccc(CCNC(=O)Cn2nc(-c3ccc(C)cc3)ccc2=O)cc1OCC`, the “activity change, negative = inhibition” value is inactive: -17.8%.
On the same count and under the same terms, the figure for `CCN(CC)S(=O)(=O)c1ccc2c(c1)N(CC(=O)N1CCN(c3ccc(F)cc3)CC1)C(=O)CO2` is inactive: -5.23%.
On to `Cc1ccc(C)c(-c2[nH]c3c(c2-c2c(-n4cccc4)n(C)c(=O)[nH]c2=O)c(=O)[nH]c(=O)n3C)c1`, for which the result was inactive.
For the compound `Cc1ccc(-c2nc(CCNC(=O)C(=O)Nc3ccc(C)cc3C)cs2)cc1`, the “activity change, negative = inhibition” value was inactive: -3.45%.
The same measure, in the same setting: the figure for `O=C(NCCc1nc2ccccc2n1Cc1ccc(F)cc1)c1ccco1` is inactive: -4.51%.
Still for that read-out and setting: the figure for `COc1ccc(CNC(=O)c2ccc(CS(=O)(=O)c3ccccc3OC)o2)cc1` is inactive: -4.25%.
As for `O=C(CNS(=O)(=O)c1cccs1)N1CCN(c2cccc(C(F)(F)F)c2)CC1`, the outcome was inactive.
As to `CCc1ccccc1NC(=O)C1=C(C)C(=O)OC12CCCCCC2`, the “activity change, negative = inhibition” value was inactive: -1.21%.
Same read-out and setting: the figure for `COc1cc(CN2CCN(S(=O)(=O)c3ccccc3)CC2)cc(OC)c1O` is inactive: 8.49%; for `CC[C@]1(O)C[C@H]2CN(CCc3c([nH]c4ccccc34)[C@@](C(=O)OC)(c3cc4c(cc3OC)N(C=O)[C@H]3[C@@](O)(C(=O)OC)[C@H](OC(C)=O)[C@]5(CC)C=CCN6CC[C@]43[C@@H]65)C2)C1` it is inactive: 6.28%.
As for `Fc1ccc(-c2noc3ncnc(NC4CCCCC4)c23)cc1`, the compound was classed as inactive.
In the case of `COc1cc(NC(=O)CSc2ncc(S(=O)(=O)c3ccc(Br)cc3)c(=O)[nH]2)cc(OC)c1`, the “activity change, negative = inhibition” value is inactive: -4.95%.
Same read-out and setting: the figure for `COc1ccc(CNC(=O)c2cc3c(=O)oc4ccc(C)cc4c3s2)c(OC)c1` is inactive: -12%; for `COc1ccc(OC)c(NC(=O)c2cccn2-c2nnc(N3CCCCC3)s2)c1` it is inactive: 19.3%.
In the case of `Cc1cccc(NC(=O)C(=O)NCC(c2ccc3c(c2)OCO3)N2CCN(C)CC2)c1C` (stereo not drawn), the “activity change, negative = inhibition” value is inactive: -7.42%.
Turning to `COc1ccc(CNC(=O)c2ccc(NC(=O)N3CCCCc4ccccc43)cc2)cc1`, the compound was called inactive.
With `COc1cc(C2CC(=O)Nc3cc4c(cc32)OCCO4)cc(Br)c1OC` (stereo not drawn), the compound was classed as inactive.
For `Cc1cccc(N2CCN(C(=O)CCCCn3c(=O)[nH]c4ccsc4c3=O)CC2)c1C`, the “activity change, negative = inhibition” value is inactive: 17.2%.
Still for that read-out and setting: the figure for `COc1ccc(Cn2c(=O)c3oc4ccccc4c3n(Cc3ccc(F)cc3)c2=O)cc1` is inactive: -26.6%; for `CCN(CC)S(=O)(=O)c1ccc2oc(C(=O)N(C)Cc3ccccc3)c(C)c2c1` it is inactive: -9.42%.
Turning to `CCCCOc1cccc(C(=O)N(Cc2sccc2C)C2CCS(=O)(=O)C2)c1` (stereo not drawn), the outcome was inactive.
As to `COc1ccc(C2C=C(c3ccccc3)Nc3nc(NC(=O)/C=C/c4ccccc4)nn32)cc1` (stereo not drawn), the “activity change, negative = inhibition” value was inactive: 7.09%.
For `CCOc1ccccc1NC(=O)CCn1nc(C)c(S(=O)(=O)N2CCCCC2)c1C`, the call was inactive.
Take `Cn1ccc2c(OCC(=O)Nc3cc(C(F)(F)F)ccc3Cl)cccc2c1=O`: the “activity change, negative = inhibition” value was inactive: -22.5%.
Still for that read-out and setting: the figure for `O=C(NCCCc1ccccc1)C1CCN(C(=O)N2CCOc3ccc(Cl)cc32)CC1` is inactive: 2%; for `CCN1CCSc2ccc(C(=O)NCc3ccc(OC)cc3)cc21` it is inactive: 3.09%.
As to `COC(=O)CCN(c1ccccc1)S(=O)(=O)c1cc(-c2cc(C)no2)ccc1OC`, the call was inactive.
As for `CC(=O)N1CCc2cc(S(=O)(=O)CCC(=O)NCc3ccc(Cl)cc3)ccc21`, the compound was called inactive.
Take `O=C(Cn1ncc2c3ccccc3n(Cc3cccc(Cl)c3)c2c1=O)NC1CCCCCC1`: the “activity change, negative = inhibition” value was inactive: -3.77%.
`CCc1ccc(NC(=O)CSC2=Nc3ccccc3C3=NC(CC(=O)NCc4ccccc4)C(=O)N23)cc1` (stereo not drawn): the result was inactive.
As for `CCN(CC)S(=O)(=O)c1ccc2c(c1)c(=O)c(C(=O)N1CCN(c3ccc(F)cc3)CC1)cn2C`, the “activity change, negative = inhibition” value is inactive: -23.3%.
With `Cc1nc2ncnn2c(C)c1CCC(=O)NCc1ccccc1Cl`, the result was inactive.
`CCOc1ccccc1N(CC(=O)N1CCc2ccccc2C1)S(=O)(=O)c1ccccc1`: the “activity change, negative = inhibition” value was inactive: 12.9%.
On the same count and under the same terms, to `O=S(=O)(Nc1cccc(-c2ccc(N3CCCCCC3)nn2)c1)c1cccc(F)c1` belongs inactive: -3%.
Take `Cc1c(C(=O)Nc2cccc(Cl)c2)oc2ccc(S(=O)(=O)N(C)C3CCCCC3)cc12`: the call was inactive.
Take `COc1cccc(NC(=O)Cn2c(=O)n(-c3ccc(C)cc3)c(=O)c3ccc(C(=O)NCc4ccco4)cc32)c1`: the “activity change, negative = inhibition” value was inactive: -6.28%.
For the compound `CS(=O)(=O)N1CCC(N2CCN(Cc3ccccc3)C(=O)C2=O)CC1`, the call was inactive.
For `CCOc1ccc2oc(=O)cc(CN3CCN(C(=O)c4ccc(F)cc4)CC3)c2c1`, the “activity change, negative = inhibition” value is inactive: 2.12%.
In the case of `CCNC(=O)CC1C(=O)N(c2cccc(OC)c2)C(=O)N1Cc1ccc(OC)c(OC)c1` (stereo not drawn), the “activity change, negative = inhibition” value was inactive: -4.31%.
For `O=C1CCSC2(C(=O)N(Cc3ccc(F)cc3)c3ccccc32)N1c1ccc(F)c(F)c1` (stereo not drawn), the “activity change, negative = inhibition” value is inactive: -12%.
Same read-out and setting: the figure for `CCc1ccc(-c2nc(CS(=O)CC(=O)NCCc3ccc(Cl)cc3)c(C)o2)cc1` (stereo not drawn) is inactive: 4.77%; for `COc1ccc(CCNC(=O)C(=O)NCC(c2ccco2)S(=O)(=O)c2ccc(F)cc2)cc1` (stereo not drawn) it is inactive: -22.8%.
With `COCCn1c(=N)c(C(=O)NC(C)c2ccccc2)cc2c(=O)n3cc(C)ccc3nc21` (stereo not drawn), the result was inactive.
As to `CCc1cccc(NC(=O)C(c2ccccc2)N2Cc3ccccc3C2=O)c1` (stereo not drawn), the “activity change, negative = inhibition” value is inactive: 5.96%.
The same measure, in the same setting: the figure for `CCC(Sc1nncn2c1cc1oc(C)cc12)C(=O)Nc1ccc(F)cc1` (stereo not drawn) is inactive: -9.52%; for `CCOCc1ccccc1Nc1ncnc2onc(-c3ccc(Cl)cc3)c12` it is inactive: -1.98%.
Still for that read-out and setting: the figure for `COc1cc(C)c(C)cc1S(=O)(=O)Nc1cccc(-c2ccc(N3CCOCC3)nn2)c1` is inactive: 3.76%.
Regarding `Cc1ccc(NC(=O)[C@@H](c2ccccc2)N2Cc3ccccc3C2=O)cc1`, the compound was classed as inactive.
With `CCC(C)NC(=O)CCc1c(C)nc2nc(-c3cc(OC)cc(OC)c3)nn2c1C` (stereo not drawn), the “activity change, negative = inhibition” value is inactive: -5.4%.
For the compound `CCc1ccccc1NC(=O)CSc1nnc2ccc3ccccc3n12`, the compound was called inactive.
Turning to `Cc1cccc(N2CCN(S(=O)(=O)c3cc(C(=O)Nc4ccccc4Cl)ccc3F)CC2)c1C`, the result was inactive.
For `O=C(CSCc1cc(=O)c2cc(F)ccc2[nH]1)Nc1ccccc1Cl`, the “activity change, negative = inhibition” value was inactive: 0.969%.
As for `COC(=O)c1cc2oc3ccccc3c2n1Cc1nc(-c2ccccc2C)oc1C`, the “activity change, negative = inhibition” value is inactive: 3.56%.
Same read-out and setting: the figure for `Cc1ccc2[nH]c(CSc3nnc(NC(=O)c4ccc(Cl)cc4)s3)cc(=O)c2c1` is inactive: -4.67%.
In the case of `Brc1ccc(-n2nc(-c3ccccc3)c3cnc4cc5c(cc4c32)OCO5)cc1`, the compound was called inactive.
`COc1ccc(OC)c(CCNc2nc3ccccc3c3nc(-c4cccnc4)nn23)c1`: the “activity change, negative = inhibition” value is inactive: 45.9%.
The same measure, in the same setting: to `CCCN(C(=O)c1coc(=O)c2ccccc12)c1ccccc1C` belongs inactive: 0.923%; to `CCc1ccc(OCC2c3cc(OC)c(OC)cc3CCN2C(=O)COc2ccccc2)cc1` (stereo not drawn), inactive: -5.62%.
For the compound `Cc1ccc(CCNC(=O)C2CCN(Cc3nc(-c4ccccc4C)oc3C)CC2)cc1`, the “activity change, negative = inhibition” value is inactive: -3.76%.
Still for that read-out and setting: to `CCCN(CCC)C(=O)c1c2c(nc3ccccc13)C(=O)N(C1CCCCC1)C2` belongs inactive: -2.98%; to `Cc1cc(S(=O)(=O)C(CNC(=O)COc2ccc(Cl)cc2)c2cccs2)ccc1F` (stereo not drawn), inactive: -0.324%; to `CCOc1ccc(NC(=O)Cn2cc(C(=O)c3ccco3)c3ccccc32)cc1`, inactive: 6.4%.
Take `CCn1c(=O)cc(OCC(=O)Nc2cc(Cl)c(OC)cc2OC)c2ccccc21`: the compound was classed as inactive.
The same measure, in the same setting: to `CCOc1ccc(CCNC(=O)c2cc3c(-c4ccc(OC)c(OC)c4)nn(C)c3s2)cc1OCC` belongs “inactive”.
For the compound `O=C(Nc1cccnc1Cl)c1cc(-c2cccc(Cl)c2)on1`, the “activity change, negative = inhibition” value was inactive: -8.4%.
On the same count and under the same terms, the figure for `CCOc1ccc(CCNC(=O)CCc2cn(Cc3ccc(F)cc3)c3ccccc23)cc1` is inactive: -8.84%.
Take `COc1ccc(-n2nc(C(=O)Nc3cccc(C)n3)c3c4ccccc4n(C)c3c2=O)cc1Cl`: the call was inactive.
Still for that read-out and setting: to `Cc1coc2cc3oc(=O)c(CC(=O)NCCc4ccccc4)c(C)c3cc12` belongs “inactive”.
